Measured values published in patent US20240376639A1 (ELASMOGEN, published 2024).

Tests used:
Human Serum Albumin = target: T1, Human Serum Albumin (human, UniProt P02768); experiment: binding ELISA on HSA coated control plate, detection with anti-HuFc-HRP
T1 construct: Non-target control antigen in the ELISAs; also called HSA

human TNF-alpha = target: T2, human TNF-alpha (human, UniProt P01375 partial chain); experiment: SPRi (IBIS MX96); Quad-X amine coupled to the chip, human TNF-alpha passed over
T2 construct: also called TNFα; hTNF-alpha

Chain of human TNF-alpha (P01375 77-233 limits assumed): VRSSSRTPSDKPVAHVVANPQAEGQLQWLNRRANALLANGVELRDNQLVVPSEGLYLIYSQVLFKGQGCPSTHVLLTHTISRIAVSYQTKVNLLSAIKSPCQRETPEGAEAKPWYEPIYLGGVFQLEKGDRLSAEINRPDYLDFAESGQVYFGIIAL

B1: SoloMER D1-Fc-C4 (VNAR FW4) Quad-X (Fc fusion)
chain: ARVDQSPSSLSASVGDRVTITCVLRDSHCATSSTYWYRKKSGSTNEESISKGGRYVETVNSGSKSFTLTISSLQPEDFATYYCASECQYGLAEYDVYGGGTVVTVNGSGGGSGGGGSG[not shown - human IgG1 Fc with changes]GGGGSGGGGSGGGGSGGGGSGGGGSARVDQSPSSLSASVGDRVTITCVLRDSNCGLSSTYWYRKKSGSTNEESISKGGRYVETINEGSKSFSLRINDLTVEDSGTYRCKLSWWTQNWRCSNSDVYGGGTVVTVN
notes: also called soloMER Quad-X (VNAR FW4); soloMER Quad-X VNAR FW4
In the case of B1, the binding result (Human Serum Albumin) is reported as “no binding (tested: 10 µg/mL)” and the Kd (human TNF-alpha) is reported as 0.809 nM.
